For two molecules, binding results are on record in paper PMC3398040.

Results are given in words; binding and its absence hold for the method and conditions named. In cells and extracts the contact can be indirect. Some binding calls cover weakened binding; strength is not graded here. Where a sequence is shown, tags or fusion partners need not be part of it.

Assay [1] deals with T1, myc-tagged Cdc53 (^mycCdc53) (S. cerevisiae) (UniProt Q12018).
T1 sequence: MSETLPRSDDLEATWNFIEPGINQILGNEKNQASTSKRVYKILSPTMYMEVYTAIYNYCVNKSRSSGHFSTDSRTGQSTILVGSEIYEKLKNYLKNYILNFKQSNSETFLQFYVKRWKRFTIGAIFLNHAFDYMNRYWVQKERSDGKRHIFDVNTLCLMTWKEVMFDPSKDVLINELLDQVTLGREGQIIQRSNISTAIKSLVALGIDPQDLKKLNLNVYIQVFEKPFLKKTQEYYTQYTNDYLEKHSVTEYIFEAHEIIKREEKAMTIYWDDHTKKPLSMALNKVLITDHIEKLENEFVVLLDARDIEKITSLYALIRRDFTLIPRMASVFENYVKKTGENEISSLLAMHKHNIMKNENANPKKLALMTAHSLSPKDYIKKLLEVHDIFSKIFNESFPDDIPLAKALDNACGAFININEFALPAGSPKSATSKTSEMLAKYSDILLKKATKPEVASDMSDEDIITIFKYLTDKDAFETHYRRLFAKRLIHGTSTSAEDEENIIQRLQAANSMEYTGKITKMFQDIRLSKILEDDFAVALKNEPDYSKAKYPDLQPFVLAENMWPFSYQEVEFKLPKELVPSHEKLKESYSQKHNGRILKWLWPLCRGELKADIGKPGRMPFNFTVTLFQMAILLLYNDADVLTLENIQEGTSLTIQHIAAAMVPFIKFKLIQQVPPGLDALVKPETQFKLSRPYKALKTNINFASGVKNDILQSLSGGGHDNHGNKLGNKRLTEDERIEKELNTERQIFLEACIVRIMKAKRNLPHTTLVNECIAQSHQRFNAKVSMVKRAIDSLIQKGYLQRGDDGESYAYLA
The experiment in a line: co-IP; bacterial lysates with HIS-Rpn1 and GST-Ufo1 mixed with yeast extract with myc-Cdc53 and GFP-Ho; aliquots immunoprecipitated with anti-myc, anti-GFP, anti-GST or anti-HIS and Protein A beads (Figure 4, + Ho).

Assay [2] deals with T2, GFP-tagged Ho endonuclease (^GFPHo) (yeast) (UniProt P09932).
T2 sequence (chain, ubiquitylated as produced in yeast (sites not stated)): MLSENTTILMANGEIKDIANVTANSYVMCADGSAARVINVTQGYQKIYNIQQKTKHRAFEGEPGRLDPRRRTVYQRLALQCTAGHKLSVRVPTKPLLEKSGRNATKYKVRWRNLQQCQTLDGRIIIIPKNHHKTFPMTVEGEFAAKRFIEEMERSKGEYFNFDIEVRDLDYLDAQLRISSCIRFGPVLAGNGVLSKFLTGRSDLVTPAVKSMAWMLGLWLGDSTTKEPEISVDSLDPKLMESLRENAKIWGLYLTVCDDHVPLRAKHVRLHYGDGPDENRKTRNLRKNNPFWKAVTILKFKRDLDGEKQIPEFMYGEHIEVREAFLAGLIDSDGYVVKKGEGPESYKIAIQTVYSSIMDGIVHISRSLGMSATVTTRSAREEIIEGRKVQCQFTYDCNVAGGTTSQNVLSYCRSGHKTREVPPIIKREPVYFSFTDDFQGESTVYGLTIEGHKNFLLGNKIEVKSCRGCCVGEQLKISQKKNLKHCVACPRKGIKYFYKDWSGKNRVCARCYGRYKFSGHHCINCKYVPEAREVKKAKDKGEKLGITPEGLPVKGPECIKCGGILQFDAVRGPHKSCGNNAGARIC
The description is as above.

Assay [3] has as its target T3, HIS-tagged Ddi1 (^HISDdi1) (yeast) (UniProt P40087).
T3 sequence: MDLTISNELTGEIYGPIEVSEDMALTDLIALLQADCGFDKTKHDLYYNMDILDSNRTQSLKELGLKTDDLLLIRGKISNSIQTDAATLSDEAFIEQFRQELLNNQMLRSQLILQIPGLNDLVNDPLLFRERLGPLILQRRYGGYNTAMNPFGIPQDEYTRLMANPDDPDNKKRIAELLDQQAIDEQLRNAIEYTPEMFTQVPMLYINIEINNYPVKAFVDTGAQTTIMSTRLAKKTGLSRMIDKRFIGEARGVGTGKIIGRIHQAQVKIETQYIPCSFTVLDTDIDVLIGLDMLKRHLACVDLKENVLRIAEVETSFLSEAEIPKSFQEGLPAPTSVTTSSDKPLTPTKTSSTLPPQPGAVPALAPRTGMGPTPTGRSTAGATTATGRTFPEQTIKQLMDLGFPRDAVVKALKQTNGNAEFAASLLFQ
The experiment in a line: pull-down; HIS-Ddi1 on Ni beads incubated with GST-Ufo1 and/or GST-Rpn1 lysate together with yeast extract with ubiquitylated GFP-Ho (Figure 5A lanes 8-10); only the target purified.

Assay [4] concerns the target T3, HIS-tagged Ddi1 (^HISDdi1) (yeast). The experiment in a line: pull-down; HIS-Ddi1 on Ni beads incubated with Ufo1 (GST-Ufo1 lysate or GFP-Ufo1 extract) together with GST-Rpn1 lysate at x1 or x2, no Ho (Figure 5A lane 7, Figure 5B lanes 5 and 6, Figure 5C); only the target purified.
Assay [5] concerns the target T1, myc-tagged Cdc53 (^mycCdc53) (S. cerevisiae). The experiment in a line: co-IP; as a6 but yeast extract without GFP-Ho; immunoprecipitated with anti-myc, anti-GST or anti-HIS (Figure 4, - Ho).
Assay [6] addresses T3, HIS-tagged Ddi1 (^HISDdi1) (yeast). The experiment in a line: pull-down; HIS-Ddi1 on Ni beads incubated with one lysate or extract alone (GST-Rpn1 or GST-Ufo1 bacterial lysate, GFP-Ho or GFP-Ufo1 yeast extract); washed with 2.5% Triton X100 and 100 mM imidazole (Figure 5A lanes 4-6, Figure 5B lanes 3 and 4); only the target purified.
Assay [7] addresses T4, GST-tagged full-length Ddi1 (^GSTFL-Ddi1) (yeast), P40087.
T4 chain: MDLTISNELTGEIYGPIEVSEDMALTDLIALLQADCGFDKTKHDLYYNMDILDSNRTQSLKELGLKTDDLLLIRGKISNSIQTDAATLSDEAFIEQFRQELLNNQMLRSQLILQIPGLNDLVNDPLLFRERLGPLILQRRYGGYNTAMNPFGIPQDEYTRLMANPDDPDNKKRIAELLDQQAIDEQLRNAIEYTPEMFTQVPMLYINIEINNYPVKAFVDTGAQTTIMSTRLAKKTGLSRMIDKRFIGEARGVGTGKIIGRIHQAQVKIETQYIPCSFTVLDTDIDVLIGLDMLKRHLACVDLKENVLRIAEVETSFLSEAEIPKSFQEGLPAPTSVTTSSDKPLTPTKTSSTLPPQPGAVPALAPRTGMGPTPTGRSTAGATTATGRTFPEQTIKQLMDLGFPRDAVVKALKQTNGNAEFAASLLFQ
The experiment in a line: pull-down; recombinant GST fusion on GSH beads incubated with bacterial lysate holding a HIS-tagged protein; Western blot (Figures 1C, 3C, 3D, 5D, 5E with Rpn1 alone); only the target purified. To be noted: remark: other sources report otherwise.

B1: GST-tagged full-length Ufo1 (^GSTFL-Ufo1) (protein, UniProt Q04511 1-668)
chain: MERPGLVLQDLPPEILINIFSHLDEKDLFTLQELSTHFRNLIHDEELWKNLFKSRVHTTHFPTFSQSSKFSVEYIERTRGLHHWQHNKAIRTKYTIIPTRNWDQPSIERIVFDYPRVAAYNDGTITILQLQNHKRQKKFKKLIYIPCTTPQGCSTMDFNINAAVFGRFDGRVFGKLLSNKSYLTPVMEFTGRHSAGVTAICNSESWDTSREDWSVSGSENGEIIWWCENKLVKMWKVSNRVIWKLAFFKDWTLIMDDEKLYIIHQMQELHSIDIPKDLDEQPMRVRFFKMDFGSMTLVLADLNNVYTISVNPNGNFGNLRKLEMPEQICAVEIDEKTSQREQNWQFAGDDGCYISLLTTQNTLYIINIRDLSSSGLKVQCKISFDEQVYVSQVTNLIVVVALPNVLQILNAMTGELIKTVLKTEKFPEFLKVSQDKIIMGSGNVLNYLKFVSSDSKKHHHSTKGKNTVSNKWNETLNTELQYYDEDEDLRRKRQSEISRLIDAYGGDLELSGDTDEENDIQLRIALLESQEAQARNQAEAGEPVGDDEDEQLRRALEESQLIYETQTNSSANHGNNTNDEIDEDDEEFLRAIRQSRVEDERRRHLRNHTTGRRNGPLSDDNFATYGAAESSERTSTENTIGSSVGVDASNNVDEDLQLAIALSLSEIN
In the case of B1, the binding entry in assay [1] is “binds”; in assay [2], “binds”; in assay [3] it was “binds”; in assay [4] it was “no binding (condition: with GST-Rpn1 lysate as competitor)”; in assay [5], “no binding (condition: without GFP-Ho)”; in assay [6], “binds”.

B2: HIS-tagged Rpn1 (^HISRpn1), P38764 1-993 (protein)
chain: MVDESDKKQQTIDEQSQISPEKQTPNKKDKKKEEEEQLSEEDAKLKTDLELLVERLKEDDSSLYEASLNALKESIKNSTSSMTAVPKPLKFLRPTYPDLCSIYDKWTDPNLKSSLADVLSILAMTYSENGKHDSLRYRLLSDVSDFEGWGHEYIRHLALEIGEVYNDQVEKDAEDETSSDGSKSDGSAATSGFEFSKEDTLRLCLDIVPYFLKHNGEEDAVDLLLEIESIDKLPQFVDENTFQRVCQYMVACVPLLPPPEDVAFLKTAYSIYLSQNELTDAIALAVRLGEEDMIRSVFDATSDPVMHKQLAYILAAQKTSFEYEGVQDIIGNGKLSEHFLYLAKELNLTGPKVPEDIYKSHLDNSKSVFSSAGLDSAQQNLASSFVNGFLNLGYCNDKLIVDNDNWVYKTKGDGMTSAVASIGSIYQWNLDGLQQLDKYLYVDEPEVKAGALLGIGISASGVHDGEVEPALLLLQDYVTNPDTKISSAAILGLGIAFAGSKNDEVLGLLLPIAASTDLPIETAAMASLALAHVFVGTCNGDITTSIMDNFLERTAIELKTDWVRFLALALGILYMGQGEQVDDVLETISAIEHPMTSAIEVLVGSCAYTGTGDVLLIQDLLHRLTPKNVKGEEDADEEETAEGQTNSISDFLGEQVNEPTKNEEAEIEVDEMEVDAEGEEVEVKAEITEKKNGESLEGEEIKSEEKKGKSSDKDATTDGKNDDEEEEKEAGIVDELAYAVLGIALIALGEDIGKEMSLRHFGHLMHYGNEHIRRMVPLAMGIVSVSDPQMKVFDTLTRFSHDADLEVSMNSIFAMGLCGAGTNNARLAQLLRQLASYYSREQDALFITRLAQGLLHLGKGTMTMDVFNDAHVLNKVTLASILTTAVGLVSPSFMLKHHQLFYMLNAGIRPKFILALNDEGEPIKVNVRVGQAVETVGQAGRPKKITGWITQSTPVLLNHGERAELETDEYISYTSHIEGVVILKKNPDYREEE
With B2, in assay [7], the binding result is “binds”.
